Our source for the EC50 and Kd values is patent publication US20180194862A1 (AbbVie / Abbott, published 2018).

In assay [1] the target is CD40 (binding assays of Example 4, Table 4-2). Nature of the assay: antigen binding, format not stated.
Assay [2] has as its target T1, MSLN (binding assays of Example 4, Table 4-2) (Homo sapiens (Human), UniProt Q13421 296-598).
T1 construct: also called mesothelin
The experiment in a line: antigen binding, format not stated.

Assay [3] deals with T2, cynomolgus 4-1BB (cynomolgus, UniProt A9YYE7 24-186).
T2 sequence: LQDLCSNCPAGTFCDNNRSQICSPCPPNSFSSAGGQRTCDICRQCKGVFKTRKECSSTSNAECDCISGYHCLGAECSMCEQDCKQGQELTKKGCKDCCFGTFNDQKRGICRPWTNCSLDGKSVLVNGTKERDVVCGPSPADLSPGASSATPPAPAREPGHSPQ
The experiment in a line: SPR. (SPR reads the build-up and loss of mass on a sensor chip optically.)

Chain of CD40 (binding assays of Example 4, Table 4-2) (P25942 21-277): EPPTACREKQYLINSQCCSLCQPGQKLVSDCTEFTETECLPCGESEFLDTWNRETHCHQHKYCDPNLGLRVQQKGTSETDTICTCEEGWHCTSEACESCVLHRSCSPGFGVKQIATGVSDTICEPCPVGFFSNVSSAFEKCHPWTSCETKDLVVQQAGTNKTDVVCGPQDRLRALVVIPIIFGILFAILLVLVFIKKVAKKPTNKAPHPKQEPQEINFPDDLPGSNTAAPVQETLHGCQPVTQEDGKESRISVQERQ
T1 sequence (Q13421 other isoform, or with tags, fused parts or gaps limits assumed, form in doubt): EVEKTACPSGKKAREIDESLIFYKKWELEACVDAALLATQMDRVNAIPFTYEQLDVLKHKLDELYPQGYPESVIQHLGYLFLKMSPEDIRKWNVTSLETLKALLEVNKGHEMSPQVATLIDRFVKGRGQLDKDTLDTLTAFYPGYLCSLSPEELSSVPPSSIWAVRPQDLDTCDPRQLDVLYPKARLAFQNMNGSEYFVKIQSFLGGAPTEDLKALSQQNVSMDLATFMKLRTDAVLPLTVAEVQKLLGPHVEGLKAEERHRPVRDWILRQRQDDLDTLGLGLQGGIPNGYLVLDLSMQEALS

B1: B37 (bispecific antibody, IgG1)
chain: EVQLVQSGAEVKKPGSSVKVSCKASGYTFTDYYINWVRQAPGQGLEWIGWIFPGSGSVYCNEQFKGRATLTVDRSTSTAYMELSSLRSEDTAVYFCASSLGKFAYWGQGTLVTVSSDLSGGGGSGGGGSGGGGSGGGGSTGDIQMTQSPSSLSASVGDRVTITCKASQSVVTAVAWYQQKPGKSPKLLIYSASNRYTGVPSRFSGSGSGTDFTLTISSLQPEDFATYFCQQYSSYPYTFGGGTKVEIKR[human IgG1 Fc with C220S V273E (EU numbers) not written out]VDGASSPVNVSSPSVQDISYELTQPPSVSVSPGQTASITCSGDKLGDKYASWYQQKPGQSPVLVIYQDNRRPSGIPERFSGSNSGNTATLTISGTQAMDEADYYCQAWDSDTYVFGTGTKVTVLGQDLSGGGGSGGGGSGGGGSGGGGSTGEVQLVQSGAEVKKPGASVKVSCKASGDTFKRYYVHWVRQAPGQGLEWMGIINPSGVSTTYAQKFQGRVTMTRDTSTSTVYMELSSLRSEDTAVYYCAEVRGSGFNYFGMDVWGQGTLVTVSS
notes: scFv-Fc-scFv: huAb8-1 (VH-VL), huIgG1 V273E, HuAM15 (VL-VH)
For orientation: EC50 means the midpoint of the concentration-response curve. Low values mean a more potent agent, high ones a less potent agent. Take B1: the figures for the EC50 in assay [1] and in assay [2] were 0.5 µg/mL and 4.4 µg/mL, respectively.

B2: B41 (bispecific antibody)
chain: DAVMTQTPLSLSVTPGQPASISCRSSQSLENTNGNTFLNWYLQKPGQSPQLLIYRVSNRFSGVPDRFSGSGSGTDFTLKISRVEAEDVGVYYCLQVTHVPFTFGQGTKLEIKRDLSGGGGSGGGGSGGGGSGGGGSTGEVQLQESGPGLVKPSETLSLTCTVSGYSITSNYYWNWIRQPPGKGLEWMGYIRYDGSNNYNPSLKNRVTISRDTSKNQFSLKLSSVTAADTAVYYCARLDYWGQGTTVTVSSR[human IgG1 Fc with C220S V273E (EU numbers) not written out]VDGASSPVNVSSPSVQDIEVQLVQSGAEVKKPGASVKVSCKASGDTFKRYYVHWVRQAPGQGLEWMGIINPSGVSTTYAQKFQGRVTMTRDTSTSTVYMELSSLRSEDTAVYYCAEVRGSGFNYFGMDVWGQGTLVTVSSDLSGGGGSGGGGSGGGGSGGGGSTGSYELTQPPSVSVSPGQTASITCSGDKLGDKYASWYQQKPGQSPVLVIYQDNRRPSGIPERFSGSNSGNTATLTISGTQAMDEADYYCQAWDSDTYVFGTGTKVTVLGQ
notes: scFv-Fc-scFv
Turning to B2, the EC50 in assay [1] worked out at 0.5 µg/mL; in assay [2], 11.9 µg/mL.

B3: B43 (bispecific antibody)
chain: EVQLVQSGAEVKKPGASVKVSCKASGDTFKRYYVHWVRQAPGQGLEWMGIINPSGVSTTYAQKFQGRVTMTRDTSTSTVYMELSSLRSEDTAVYYCAEVRGSGFNYFGMDVWGQGTLVTVSSDLSGGGGSGGGGSGGGGSGGGGSTGSYELTQPPSVSVSPGQTASITCSGDKLGDKYASWYQQKPGQSPVLVIYQDNRRPSGIPERFSGSNSGNTATLTISGTQAMDEADYYCQAWDSDTYVFGTGTKVTVLGQ[human IgG1 Fc with C220S V273E (EU numbers) not written out]VDGASSPVNVSSPSVQDIDIQMTQSPSSLSASVGDRVTITCKASQSVVTAVAWYQQKPGKSPKLLIYSASNRYTGVPSRFSGSGSGTDFTLTISSLQPEDFATYFCQQYSSYPYTFGGGTKVEIKRDLSGGGGSGGGGSGGGGSGGGGSTGEVQLVQSGAEVKKPGSSVKVSCKASGYTFTDYYINWVRQAPGQGLEWIGWIFPGSGSVYCNEQFKGRATLTVDRSTSTAYMELSSLRSEDTAVYFCASSLGKFAYWGQGTLVTVSS
notes: scFv-Fc-scFv
As for B3, the figures for the concentration giving a half-maximal response (EC50) in assay [1] and in assay [2] were 3.3 µg/mL and 7.3 µg/mL, respectively.

B4: B44 (bispecific antibody)
chain: SYELTQPPSVSVSPGQTASITCSGDKLGDKYASWYQQKPGQSPVLVIYQDNRRPSGIPERFSGSNSGNTATLTISGTQAMDEADYYCQAWDSDTYVFGTGTKVTVLGQDLSGGGGSGGGGSGGGGSGGGGSTGEVQLVQSGAEVKKPGASVKVSCKASGDTFKRYYVHWVRQAPGQGLEWMGIINPSGVSTTYAQKFQGRVTMTRDTSTSTVYMELSSLRSEDTAVYYCAEVRGSGFNYFGMDVWGQGTLVTVSS[human IgG1 Fc with C220S V273E (EU numbers) not written out]VDGASSPVNVSSPSVQDIEVQLVQSGAEVKKPGSSVKVSCKASGYTFTDYYINWVRQAPGQGLEWIGWIFPGSGSVYCNEQFKGRATLTVDRSTSTAYMELSSLRSEDTAVYFCASSLGKFAYWGQGTLVTVSSDLSGGGGSGGGGSGGGGSGGGGSTGDIQMTQSPSSLSASVGDRVTITCKASQSVVTAVAWYQQKPGKSPKLLIYSASNRYTGVPSRFSGSGSGTDFTLTISSLQPEDFATYFCQQYSSYPYTFGGGTKVEIKR
notes: scFv-Fc-scFv
As to B4, the EC50 in assay [1] worked out at 0.8 µg/mL; in assay [2], 5.7 µg/mL.

B5: B38 (bispecific antibody)
chain: DIQMTQSPSSLSASVGDRVTITCKASQSVVTAVAWYQQKPGKSPKLLIYSASNRYTGVPSRFSGSGSGTDFTLTISSLQPEDFATYFCQQYSSYPYTFGGGTKVEIKRDLSGGGGSGGGGSGGGGSGGGGSTGEVQLVQSGAEVKKPGSSVKVSCKASGYTFTDYYINWVRQAPGQGLEWIGWIFPGSGSVYCNEQFKGRATLTVDRSTSTAYMELSSLRSEDTAVYFCASSLGKFAYWGQGTLVTVSS[human IgG1 Fc with C220S V273E (EU numbers) not written out]VDGASSPVNVSSPSVQDISYELTQPPSVSVSPGQTASITCSGDKLGDKYASWYQQKPGQSPVLVIYQDNRRPSGIPERFSGSNSGNTATLTISGTQAMDEADYYCQAWDSDTYVFGTGTKVTVLGQDLSGGGGSGGGGSGGGGSGGGGSTGEVQLVQSGAEVKKPGASVKVSCKASGDTFKRYYVHWVRQAPGQGLEWMGIINPSGVSTTYAQKFQGRVTMTRDTSTSTVYMELSSLRSEDTAVYYCAEVRGSGFNYFGMDVWGQGTLVTVSS
notes: scFv-Fc-scFv
Consider B5, for which the EC50 came to 1.2 µg/mL in assay [1] and 14.3 µg/mL in assay [2].

B6: B46 (bispecific antibody)
chain: SYELTQPPSVSVSPGQTASITCSGDKLGDKYASWYQQKPGQSPVLVIYQDNRRPSGIPERFSGSNSGNTATLTISGTQAMDEADYYCQAWDSDTYVFGTGTKVTVLGQDLSGGGGSGGGGSGGGGSGGGGSTGEVQLVQSGAEVKKPGASVKVSCKASGDTFKRYYVHWVRQAPGQGLEWMGIINPSGVSTTYAQKFQGRVTMTRDTSTSTVYMELSSLRSEDTAVYYCAEVRGSGFNYFGMDVWGQGTLVTVSS[human IgG1 Fc with C220S V273E (EU numbers) not written out]VDGASSPVNVSSPSVQDIEVQLQESGPGLVKPSETLSLTCTVSGYSITSNYYWNWIRQPPGKGLEWMGYIRYDGSNNYNPSLKNRVTISRDTSKNQFSLKLSSVTAADTAVYYCARLDYWGQGTTVTVSSDLSGGGGSGGGGSGGGGSGGGGSTGDAVMTQTPLSLSVTPGQPASISCRSSQSLENTNGNTFLNWYLQKPGQSPQLLIYRVSNRFSGVPDRFSGSGSGTDFTLKISRVEAEDVGVYYCLQVTHVPFTFGQGTKLEIKR
notes: scFv-Fc-scFv
For B6, the EC50 in assay [1] was determined as 0.5 µg/mL; in assay [2], 2.5 µg/mL.

B7: hu106MSLN-1 (bispecific antibody)
chain: EVQLVQSGAEVKKPGSSVKVSCKASGYTFTSYYIYWVRQAPGQGLEWIGNIWPGNGGTFYGEKFMGRATFTADTSTSTAYMELSSLRSEDTAVYYCARRPDYSGDDYFDYWGQGTLVTVSSGGGGSGGGGSGGGGSGGGGSGGGGSGGGGSNVMLTQPHSVSESPGKTVTISCKLNSGNIGSYYVHWYQQRPGSSPTTMIYRDDKRPDGVPDRFSGSIDSSSNSASLTISGLKTEDEADYYCHSYDSTITPVFGGGTKLTVLGQ[human IgG1 Fc with C220S V273E (EU numbers) not written out]GGGGSGGGSGGGSGGGGSSYELTQPPSVSVSPGQTASITCSGDKLGDKYASWYQQKPGQSPVLVIYQDNRRPSGIPERFSGSNSGNTATLTISGTQAMDEADYYCQAWDSDTYVFGTGTKVTVLGQGGGGSGGGGSGGGGSGGGGSGGGGSGGGGSEVQLVQSGAEVKKPGASVKVSCKASGDTFKRYYVHWVRQAPGQGLEWMGIINPSGVSTTYAQKFQGRVTMTRDTSTSTVYMELSSLRSEDTAVYYCAEVRGSGFNYFGMDVWGQGTLVTVSS
The Kd is the equilibrium constant for the complex coming apart. Lower therefore signals tighter binding. Consider B7, for which, in assay [3], the affinity, expressed as Kd, was 420 nM.

B8: B42 (bispecific antibody)
chain: DAVMTQTPLSLSVTPGQPASISCRSSQSLENTNGNTFLNWYLQKPGQSPQLLIYRVSNRFSGVPDRFSGSGSGTDFTLKISRVEAEDVGVYYCLQVTHVPFTFGQGTKLEIKRDLSGGGGSGGGGSGGGGSGGGGSTGEVQLQESGPGLVKPSETLSLTCTVSGYSITSNYYWNWIRQPPGKGLEWMGYIRYDGSNNYNPSLKNRVTISRDTSKNQFSLKLSSVTAADTAVYYCARLDYWGQGTTVTVSSR[human IgG1 Fc with C220S V273E (EU numbers) not written out]VDGASSPVNVSSPSVQDISYELTQPPSVSVSPGQTASITCSGDKLGDKYASWYQQKPGQSPVLVIYQDNRRPSGIPERFSGSNSGNTATLTISGTQAMDEADYYCQAWDSDTYVFGTGTKVTVLGQDLSGGGGSGGGGSGGGGSGGGGSTGEVQLVQSGAEVKKPGASVKVSCKASGDTFKRYYVHWVRQAPGQGLEWMGIINPSGVSTTYAQKFQGRVTMTRDTSTSTVYMELSSLRSEDTAVYYCAEVRGSGFNYFGMDVWGQGTLVTVSS
notes: scFv-Fc-scFv
For B8, the figures for the EC50 in assay [1] and in assay [2] were 0.8 µg/mL and 6 µg/mL, respectively.

B9: B45 (bispecific antibody)
chain: SYELTQPPSVSVSPGQTASITCSGDKLGDKYASWYQQKPGQSPVLVIYQDNRRPSGIPERFSGSNSGNTATLTISGTQAMDEADYYCQAWDSDTYVFGTGTKVTVLGQDLSGGGGSGGGGSGGGGSGGGGSTGEVQLVQSGAEVKKPGASVKVSCKASGDTFKRYYVHWVRQAPGQGLEWMGIINPSGVSTTYAQKFQGRVTMTRDTSTSTVYMELSSLRSEDTAVYYCAEVRGSGFNYFGMDVWGQGTLVTVSS[human IgG1 Fc with C220S V273E (EU numbers) not written out]VDGASSPVNVSSPSVQDIDIQMTQSPSSLSASVGDRVTITCKASQSVVTAVAWYQQKPGKSPKLLIYSASNRYTGVPSRFSGSGSGTDFTLTISSLQPEDFATYFCQQYSSYPYTFGGGTKVEIKRDLSGGGGSGGGGSGGGGSGGGGSTGEVQLVQSGAEVKKPGSSVKVSCKASGYTFTDYYINWVRQAPGQGLEWIGWIFPGSGSVYCNEQFKGRATLTVDRSTSTAYMELSSLRSEDTAVYFCASSLGKFAYWGQGTLVTVSS
notes: scFv-Fc-scFv
As for B9, the EC50 in assay [1] amounted to 1.2 µg/mL; in assay [2], 5.6 µg/mL.
